Measurements taken from PubChem BioAssay AID2112 (National Center for Advancing Translational Sciences (NCATS), 2009).
In all, about 240,000 compounds went through this assay and about 15 (0.006%) were called active. This list was built around the results that the source calls inconclusive (neither active nor inactive); the mix of calls is not that of the screen. Calls follow the shape of the dose curve; as a rule, active = well fitted inhibition curve with a large enough effect; inconclusive = small, poorly fitted or top-dose-only effect, or effect the other way, or another doubt; inactive = no such curve, though single readings can be large or run the other way. No potency is given beside an inconclusive call; the fits are too rough.

Target: Lysosomal alpha-glucosidase (Homo sapiens) (UniProt P10253)
Assay: qHTS Assay for Inhibitors and Activators of Human alpha-Glucosidase From Spleen Homogenate;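 as to activity change, negative = inhibition: 0% = enzyme with vehicle and -100% = no enzyme basal signal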
Conditions: 4-MU-alpha-glucoside fluorescence; series mostly up to 79.9 µM
Method in brief: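 Compounds were titrated against alpha-glucosidase in spleen homogenate at pH 5.0, with 1 mM 4-methylumbelliferyl substrate for 40 min at 37 C. Reactions were quenched with pH 10 NaOH/glycine and fluorescence measured.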
Potency is read from the fitted curve at half-maximal effect; tags tell the direction and shape of the fitted curve.

Compound | Potency | activity change, negative = inhibition
CCOCCCn1c(=NC(=O)c2cccs2)c(C#N)cc2c(=O)n3cccc(C)c3nc21 | inconclusive [activator, partial curve] | –
O=C(Cc1ccccc1)NCCCc1ccccc1 | inconclusive [inhibitor, partial curve, poor fit] | –
CCCc1cc(=O)oc2c(CN3CCN(C)CC3)c(O)c(Cl)cc12 | inconclusive [activator, partial curve] | –
CCOC(=O)C(C(=O)OCC)C1N=C(N)N=C2Oc3ccccc3N21 (stereo not given) | inconclusive [inhibitor, full curve, poor fit] | –
Cc1cc(=O)oc2cc3c(cc12)OCCN3 | inconclusive [activator, partial curve] | –
Cc1cccn2c(=O)c3cc(C#N)c(=O)n(CCCN4CCOCC4)c3nc12 | inconclusive [activator, partial curve] | –
CN(CC(=O)Nc1ccncc1)S(=O)(=O)c1ccc(Cl)cc1 | inconclusive [inhibitor, partial curve] | –
CCS(=O)(=O)Nc1ccc(-c2nc3cccnc3s2)cc1 | inconclusive [activator, single point] | –
CCc1cc(=O)oc2cc(OC(C)=O)cc(OC(C)=O)c12 | inconclusive [activator, partial curve] | –
Nc1ncnc2n[nH]c(Nc3ccc(F)cc3)c12 | inactive | –
Cc1c(C)c2cc(Cl)c(O)c(CN3CCCC(C)C3)c2oc1=O (stereo not given) | inconclusive [activator, partial curve] | –
CCOc1ccc(-c2nnc(-c3ccco3)o2)cc1 | inconclusive [inhibitor, full curve, poor fit] | –
C/C(=N/NC(N)=S)c1cc2ccc(O)cc2oc1=O | inconclusive [activator, partial curve] | –
Cc1cc(C)n2c(Nc3ccc4c(c3)OCCO4)c(-c3ccc(C)o3)nc2n1 | inactive | –
Cc1ccccc1C(=O)NNc1ccc(-c2csnn2)cc1 | inactive | –
COc1ccc2cc3cc(C(=O)NCCN4CCc5ccccc5C4)oc3nc2c1 | inconclusive [activator, partial curve] | –
O=C(Nc1nsc(-c2ccccc2)n1)c1cccs1 | inactive | –
OC[C@@H]1[C@@H](c2ccccc2)C(c2ccccc2)=NN1c1ccccc1 | inconclusive [activator, partial curve] | –
CC(C)n1c(=NC(=O)c2ccco2)c(C#N)cc2c(=O)n3ccccc3cc21 | inconclusive [activator, partial curve] | –
Cc1nnc(SCC(=O)N2CCN(S(=O)(=O)c3ccccc3)CC2)n1Cc1ccccc1 | inconclusive [inhibitor, single point] | –
Nc1n[nH]c(-c2ccc(Br)cc2)c1Cl | inconclusive [inhibitor, single point] | –
CC1(C)CC(=O)C=C(NCc2ccncc2)C1 | inconclusive [inhibitor, full curve] | –
COc1ccc(NC(=O)CCCSc2nc(-c3ccco3)cc(C(F)(F)F)n2)cc1OC | inconclusive [inhibitor, full curve, poor fit] | –
Cc1csc(NC(=O)c2ccc(S(C)(=O)=O)cc2)n1 | inconclusive [inhibitor, single point] | –

Compound | Potency | activity change, negative = inhibition
COC(=O)c1c(-c2snnc2C)n[nH]c1C | inconclusive [inhibitor, single point] | –
COc1ccc2cc3cc(C(=O)NCCCN4CCOCC4)oc3nc2c1 | inconclusive [activator, partial curve] | –
O=C(c1ccccc1)c1ccccc1C(=O)N1CCOCC1 | inconclusive [inhibitor, full curve, poor fit] | –
Cc1c(Cc2ccccc2)c(=O)oc2cc(O)ccc12 | inconclusive [activator, partial curve] | –
Cc1ccc(-c2cc(C(F)(F)F)c(C#N)c(=O)[nH]2)cc1 | inconclusive [activator, single point] | –
CCC(=O)Nc1nc(CC(=O)Nc2ccccc2OC)cs1 | inconclusive [inhibitor, full curve, poor fit] | –
CCc1ccc(CCC(=O)Nc2ccc(S(N)(=O)=O)cc2)o1 | inconclusive [inhibitor, full curve, poor fit] | –
Cc1noc(C)c1-c1ccc2ncnc(NCc3cccc(Cl)c3)c2c1 | inactive | –
O=c1cccccc1NCc1ccccc1 | inactive | –
C=CCNc1ncnc2ccccc12 | inconclusive [inhibitor, partial curve, poor fit] | –
CCC(NC(=O)OC(C)(C)C)C(=O)Oc1ccc2c3c(c(=O)oc2c1)CCC3 (stereo not given) | inconclusive [activator, partial curve] | –
COCCn1c(=O)[nH]c2cc(C(=O)NC(C)C)ccc2c1=O | inconclusive [activator, partial curve] | –
CCCCC(=O)OCc1nc(N)nc(Nc2ccccc2C)n1 | inconclusive [inhibitor, partial curve] | –
O=C(CSc1nc(C2CC2)nc2ccccc12)NCc1ccc2c(c1)OCO2 | inconclusive [inhibitor, partial curve] | –
C=CCC(C)(O)/C=C/c1ccccc1 (stereo not given) | inactive | –
COCC#Cc1ccc(C2C(C)CCC3C(=O)N4C(CCC(C)C4c4ccc(C#CCOC)cc4)C(=O)N32)cc1 (stereo not given) | – | inactive: 2.37% [at 17.4 µM]
COC(=O)c1ccc(C(=O)OC)c(NC(=O)Oc2ccccc2)c1 | inconclusive [activator, single point] | –
N[C@@H](Cc1cc(-c2ccc(Cl)cc2Cl)cc(CP(=O)(O)O)c1O)C(=O)O | inactive | –
CCN1CCN(C(=O)c2cc3c(=O)n4ccccc4nc3n2Cc2ccccc2)CC1 | inconclusive [activator, single point] | –
C(=C\c1ccco1)/C1=NN(c2ccccc2)C(c2ccco2)C1 (stereo not given) | inconclusive [activator, partial curve] | –
OCCN(CCO)c1ccc2ccccc2c1 | inconclusive [activator, partial curve] | –
COCCn1c(-c2cccs2)nc2nc3ccccc3nc21 | inconclusive [activator, partial curve] | –
Nc1ccc(-c2nc3ccc(-c4nc5ccccc5o4)cc3[nH]2)cc1 | inconclusive [activator, single point] | –
CCN1c2ccccc2-c2nc3ccccc3n2C1c1cccs1 (stereo not given) | inconclusive [activator, partial curve] | –

Compound | Potency | activity change, negative = inhibition
CC(C)(C)NC(=S)Nc1ccc(Nc2ccccc2)cc1 | inconclusive [inhibitor, full curve, poor fit] | –
CN1CCc2cc3c(cc2C1O)OCO3 (stereo not given) | inconclusive [activator, single point] | –
COc1ncc2nc(-c3cccs3)c(=O)n(C)c2n1 | inconclusive [activator, single point] | –
Cc1nc2cc3ccccc3cc2c(=O)[nH]1 | inconclusive [activator, single point] | –
Oc1ccc(/C=N/Nc2cccc3cccnc23)c(O)c1 | inactive | –
O=C(NNC(=S)NC(=O)c1ccccc1[N+](=O)[O-])c1ccccc1O | inactive | –
C=CCn1c(N)c(C(=O)NCC2CCCO2)c2nc3ccccc3nc21 (stereo not given) | inconclusive [activator, single point] | –
CCCc1cc(=S)n2c([nH]c3ccccc32)c1C#N | inconclusive [activator, single point] | –
C[C@@H]1Cc2c(Cl)cc(C(=O)N[C@H](Cc3ccccc3)C(=O)O)c(O)c2C(=O)O1 | inconclusive [activator, single point] | –
COc1cc2nc(N(C)C)nc(N)c2cc1OC | inconclusive [activator, partial curve] | –
Cc1ccc(N2CCCn3c2cc(C)c(C#N)c3=O)cc1C | inconclusive [inhibitor, single point] | –
Cc1ccc(CNc2nc(C)nc3sc4c(c23)CCC4)cc1 | inactive | –
O=C1CCCc2c1sc1nc3n(c(=O)c21)CCCCC3 | inconclusive [inhibitor, full curve, poor fit] | –
Nc1ccccc1-c1nc2ccccc2[nH]1 | inconclusive [activator, partial curve] | –
C=CCOc1cccc(NC(=O)c2ccccc2SC)c1 | inactive | –
Cc1ccc(CNc2ccc(N3CCOCC3)cc2)s1 | inactive | –
COc1ccc(/C=N/NC(=O)c2cc(C)on2)c2ccccc12 | inconclusive [inhibitor, single point] | –
COC(=O)C1=CN(CCCN2CCCC2=O)C=C(C(=O)OC)C1c1ccccc1C(F)(F)F | inconclusive [activator, partial curve] | –
N#Cc1c(C(F)(F)F)cc(-c2cccc(Cl)c2)[nH]c1=O | inconclusive [activator, partial curve] | –
CN(C)c1ncc2nc(-c3cc(F)cc(F)c3)c(=O)n(-c3ccccc3)c2n1 | inactive | –
CC(C)C[C@@H](NC(=O)[C@@H](O)[C@H](N)Cc1ccccc1)C(=O)O | inconclusive [inhibitor, partial curve] | –
CCc1ccc(OCC(=O)NC(NC(=S)Nc2ccccc2)C(Cl)(Cl)Cl)cc1 (stereo not given) | inconclusive [inhibitor, full curve, poor fit] | –
